Experimental data taken from PMC9019100, “Development of NanoLuc-targeting protein degraders and a universal reporter system to benchmark tag-targeted degradation platforms” (Nature Communications, 2022).
Read-outs that look alike come from different tables or passages of the source.

Biological target: Halo-EGFP-NanoLuc-FKBP^F36V (H-E-N-F) fusion protein (UniProt P0A3G2+P62942+Q9GV45, A155T/A167V/A172T/A224E/A31E/A60N/A81I/C128F/C176G/D78G/E160K/E257K/F37V/F95D/H272N/I117V/K175M/K195N/K70R/L47V/L54V/L88M/L99Q/M102K/N193R/N227D/P142E/P291S/Q151K/Q38R/Q45L/S2A/S58T/T264A/V71I/Y165I/Y273L/Y87F)
Format: cell-based

Chain of Halo-EGFP-NanoLuc-FKBP^F36V (H-E-N-F) fusion protein (Q9GV45 other isoform, or with tags, fused parts or gaps with the stated changes): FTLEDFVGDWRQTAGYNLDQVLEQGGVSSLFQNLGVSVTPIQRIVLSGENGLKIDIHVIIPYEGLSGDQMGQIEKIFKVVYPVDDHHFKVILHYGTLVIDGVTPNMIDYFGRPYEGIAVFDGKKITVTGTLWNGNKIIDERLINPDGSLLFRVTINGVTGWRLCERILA
Chain of Halo-EGFP-NanoLuc-FKBP^F36V (H-E-N-F) fusion protein (P0A3G2 other isoform, or with tags, fused parts or gaps with the stated changes): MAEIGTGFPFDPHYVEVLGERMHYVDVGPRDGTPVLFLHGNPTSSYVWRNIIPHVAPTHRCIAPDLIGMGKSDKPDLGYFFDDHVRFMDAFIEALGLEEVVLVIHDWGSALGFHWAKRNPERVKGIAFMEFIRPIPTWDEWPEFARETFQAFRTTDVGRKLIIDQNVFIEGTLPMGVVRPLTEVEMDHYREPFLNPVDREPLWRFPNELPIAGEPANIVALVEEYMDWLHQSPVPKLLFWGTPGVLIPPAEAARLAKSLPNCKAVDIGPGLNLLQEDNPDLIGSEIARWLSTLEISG
Chain of Halo-EGFP-NanoLuc-FKBP^F36V (H-E-N-F) fusion protein (P62942 whole entry F37V, the tested form may be a part): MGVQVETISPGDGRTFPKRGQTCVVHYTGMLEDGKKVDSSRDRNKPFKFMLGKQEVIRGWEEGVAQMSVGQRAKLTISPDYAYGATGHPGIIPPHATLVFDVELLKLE

CC[C@H](C(=O)N1CCCC[C@H]1C(=O)O[C@H](CCc1ccc(OC)c(OC)c1)c1ccccc1OCC(=O)NCCCCCCOc1cccc2c1C(=O)N(C1CCC(=O)NC1=O)C2=O)c1cc(OC)c(OC)c(OC)c1 (stereo partly drawn) [FC1]
degradation of the H-E-N-F fusion protein by Western blot (100 nM, 5 h): almost completely degraded

CC[C@H](C(=O)N1CCCC[C@H]1C(=O)O[C@H](CCc1ccc(OC)c(OC)c1)c1ccccc1OCC(=O)NCCCCCCC(=O)N[C@H](C(=O)N1C[C@H](O)C[C@H]1C(=O)N[C@@H](C)c1ccc(-c2scnc2C)cc1)C(C)(C)C)c1cc(OC)c(OC)c(OC)c1 [FV1]
degradation of the H-E-N-F fusion protein by Western blot: complete degradation

CCc1cccc(N(CC)C(=O)Cn2c(C(=O)NC3CCC(C(=O)NCCCCCCCC(=O)NCCCCCCC(=O)N[C@H](C(=O)N4C[C@H](O)C[C@H]4C(=O)NCc4ccc(-c5scnc5C)cc4)C(C)(C)C)CC3)cc3ccccc32)c1 (stereo partly drawn) [NV2]
degradation of the H-E-N-F fusion protein by Western blot (tested concentrations up to 16 μM, 5 h): unable to trigger degradation
